The supplement of paper PMC8728848
This is one part of the list.

Columns and labels:
Experiment in all cases: glycan array binding signal (z-score within array); higher = stronger binding
Conditions in all cases: glycan notation: IUPAC condensed, linker removed
[1] = biological target: Gal(b1-4)GalNAc(b1-3)[Fuc(a1-2)]Gal(b1-4)GlcNAc
Method in brief: (§1)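 Columns mapping to the same glycan were averaged after glycan names were converted to IUPAC-condensed notation. The data come from 3228 arrays in the Consortium for Functional Glycomics database, limited to those with an available protein sequence. Binding is reported as a within-array Z-score averaged across arrays of one protein sequence and across linkers.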

Gal(b1-4)Glc = biological target: Gal(b1-4)Glc
Method in brief: as §1

Gal(b1-4)Glc6S = biological target: Gal(b1-4)Glc6S
Method in brief: as §1

Gal(b1-4)GlcNAc = biological target: Gal(b1-4)GlcNAc
Method in brief: as §1

[2] = biological target: Gal(b1-4)GlcNAc(a1-6)Gal(b1-4)GlcNAc
Method in brief: as §1

Gal(b1-4)GlcNAc(b1-2)Man = biological target: Gal(b1-4)GlcNAc(b1-2)Man
Method in brief: as §1

[3] = biological target: Gal(b1-4)GlcNAc(b1-2)Man(a1-3)Man(b1-4)GlcNAc(b1-4)GlcNAc
Method in brief: as §1

[4] = biological target: Gal(b1-4)GlcNAc(b1-2)Man(a1-3)[Gal(b1-4)GlcNAc(b1-2)Man(a1-6)]Man(b1-4)GlcNAc(b1-4)GlcNAc
Method in brief: as §1

[5] = biological target: Gal(b1-4)GlcNAc(b1-2)Man(a1-3)[Gal(b1-4)GlcNAc(b1-2)Man(a1-6)]Man(b1-4)GlcNAc(b1-4)[Fuc(a1-6)]GlcNAc
Method in brief: as §1

[6] = biological target: Gal(b1-4)GlcNAc(b1-2)Man(a1-3)[Gal(b1-4)GlcNAc(b1-2)Man(a1-6)][Gal(b1-4)GlcNAc(b1-4)]Man(b1-4)GlcNAc(b1-4)[Fuc(a1-6)]GlcNAc
Method in brief: as §1

[7] = biological target: Gal(b1-4)GlcNAc(b1-2)Man(a1-3)[Gal(b1-4)GlcNAc(b1-2)Man(a1-6)][GlcNAc(b1-4)]Man(b1-4)GlcNAc(b1-4)[Fuc(a1-6)]GlcNAc
Method in brief: as §1

[8] = biological target: Gal(b1-4)GlcNAc(b1-2)Man(a1-3)[GlcNAc(b1-2)Man(a1-6)]Man(b1-4)GlcNAc(b1-4)GlcNAc
Method in brief: as §1

[9] = biological target: Gal(b1-4)GlcNAc(b1-2)Man(a1-3)[GlcNAc(b1-4)][Gal(b1-4)GlcNAc(b1-2)Man(a1-6)]Man(b1-4)GlcNAc(b1-4)GlcNAc
Method in brief: as §1

[10] = biological target: Gal(b1-4)GlcNAc(b1-2)Man(a1-3)[Man(a1-6)]Man(b1-4)GlcNAc(b1-4)GlcNAc
Method in brief: as §1

[11] = biological target: Gal(b1-4)GlcNAc(b1-2)Man(a1-6)Man(b1-4)GlcNAc(b1-4)GlcNAc
Method in brief: as §1

[12] = biological target: Gal(b1-4)GlcNAc(b1-2)Man(a1-6)[GlcNAc(b1-2)Man(a1-3)]Man(b1-4)GlcNAc(b1-4)GlcNAc
Method in brief: as §1

[13] = biological target: Gal(b1-4)GlcNAc(b1-2)Man(a1-6)[Man(a1-3)]Man(b1-4)GlcNAc(b1-4)GlcNAc
Method in brief: as §1

[14] = biological target: Gal(b1-4)GlcNAc(b1-2)[Gal(b1-4)GlcNAc(b1-4)]Man(a1-3)[Gal(b1-4)GlcNAc(b1-2)Man(a1-6)]Man(b1-4)GlcNAc(b1-4)GlcNAc
Method in brief: as §1

[15] = biological target: Gal(b1-4)GlcNAc(b1-2)[Gal(b1-4)GlcNAc(b1-4)]Man(a1-3)[Gal(b1-4)GlcNAc(b1-2)[Gal(b1-4)GlcNAc(b1-6)]Man(a1-6)]Man(b1-4)GlcNAc(b1-4)GlcNAc
Method in brief: as §1

[16] = biological target: Gal(b1-4)GlcNAc(b1-2)[Gal(b1-4)GlcNAc(b1-4)]Man(a1-3)[GlcNAc(b1-4)][Gal(b1-4)GlcNAc(b1-2)Man(a1-6)]Man(b1-4)GlcNAc(b1-4)GlcNAc
Method in brief: as §1

[17] = biological target: Gal(b1-4)GlcNAc(b1-2)[Gal(b1-4)GlcNAc(b1-4)]Man(a1-3)[GlcNAc(b1-4)][Gal(b1-4)GlcNAc(b1-2)[Gal(b1-4)GlcNAc(b1-6)]Man(a1-6)]Man(b1-4)GlcNAc(b1-4)GlcNAc
Method in brief: as §1

[18] = biological target: Gal(b1-4)GlcNAc(b1-2)[Gal(b1-4)GlcNAc(b1-6)]Man(a1-6)[Gal(b1-4)GlcNAc(b1-2)Man(a1-3)]Man(b1-4)GlcNAc(b1-4)GlcNAc
Method in brief: as §1

[19] = biological target: Gal(b1-4)GlcNAc(b1-2)[Gal(b1-4)GlcNAc(b1-6)]Man(a1-6)[Gal(b1-4)GlcNAc(b1-2)Man(a1-3)]Man(b1-4)GlcNAc(b1-4)[Fuc(a1-6)]GlcNAc
Method in brief: as §1

[20] = biological target: Gal(b1-4)GlcNAc(b1-2)[Gal(b1-4)GlcNAc(b1-6)]Man(a1-6)[GlcNAc(b1-4)][Gal(b1-4)GlcNAc(b1-2)Man(a1-3)]Man(b1-4)GlcNAc(b1-4)GlcNAc
Method in brief: as §1

[21] = biological target: Gal(b1-4)GlcNAc(b1-2)[Gal(b1-4)GlcNAc(b1-6)]Man(a1-6)[GlcNAc(b1-4)][Gal(b1-4)GlcNAc(b1-2)[Gal(b1-4)GlcNAc(b1-4)]Man(a1-3)]Man(b1-4)GlcNAc(b1-4)[Fuc(a1-6)]GlcNAc
Method in brief: as §1

[22] = biological target: Gal(b1-4)GlcNAc(b1-3)Gal(b1-3)GalNAc
Method in brief: as §1

[23] = biological target: Gal(b1-4)GlcNAc(b1-3)Gal(b1-3)GlcNAc
Method in brief: as §1

[24] = biological target: Gal(b1-4)GlcNAc(b1-3)Gal(b1-4)Glc
Method in brief: as §1

[25] = biological target: Gal(b1-4)GlcNAc(b1-3)Gal(b1-4)GlcNAc
Method in brief: as §1

[26] = biological target: Gal(b1-4)GlcNAc(b1-3)Gal(b1-4)GlcNAc(b1-2)Man(a1-3)[Gal(b1-4)GlcNAc(b1-3)Gal(b1-4)GlcNAc(b1-2)Man(a1-6)]Man(b1-4)GlcNAc(b1-4)GlcNAc
Method in brief: as §1

B1: Di AAL2 (Agrocybe aegerita) (protein)
chain: MTSNVITQDLPIPVASRGFADIVGFGLDGVVIGRNAVNLQPFLAVKNFAQNAGGWLTTKHVRLIADTTGTGKGDIVGFGNAGVYVSVNNGKNTFADPPKMVIANFGYDAGGWRVEKHLRYLADIRKIGRADIIGFGEKGVLVSRNNGGLNFGPATLVLKDFGYDAGGWRLDRHLRFLADVTGNGHLDIVGFGDKHVFISRNNGDGTFAPAKSVIDNFCIDAGGWKIGDHPRFVADLTGDGTADIIGCGKAGCWVALNNGGGVFGQVKLVINDFGTDKGWQAAKHPRFIADLTGNGRGDVVGFGNAGVYVALNNGDGTFQSAKLVLKDFGVQQGWTVSKHRRFVVDLTGDGCADIIGFGEKETLVSYNDGKGNFGPVKALTNDFSFSGGKWAPETTVCWMANLDSSRHPAPAPMTSNVITQDLPIPVASRGFADIVGFGLDGVVIGRNAVNLQPFLAVKNFAQNAGGWLTTKHVRLIADTTGTGKGDIVGFGNAGVYVSVNNGKNTFADPPKMVIANFGYDAGGWRVEKHLRYLADIRKIGRADIIGFGEKGVLVSRNNGGLNFGPATLVLKDFGYDAGGWRLDRHLRFLADVTGNGHLDIVGFGDKHVFISRNNGDGTFAPAKSVIDNFCIDAGGWKIGDHPRFVADLTGDGTADIIGCGKAGCWVALNNGGGVFGQVKLVINDFGTDKGWQAAKHPRFIADLTGNGRGDVVGFGNAGVYVALNNGDGTFQSAKLVLKDFGVQQGWTVSKHRRFVVDLTGDGCADIIGFGEKETLVSYNDGKGNFGPVKALTNDFSFSGGKWAPETTVCWMANLDSSRH
- glycan array binding signal (z-score) [1]: -0.339
- glycan array binding signal (z-score) (Gal(b1-4)Glc): -0.303
- glycan array binding signal (z-score) (Gal(b1-4)Glc6S): -0.327
- glycan array binding signal (z-score) (Gal(b1-4)GlcNAc): -0.302
- glycan array binding signal (z-score) [2]: -0.334
- glycan array binding signal (z-score) (Gal(b1-4)GlcNAc(b1-2)Man): -0.282
- glycan array binding signal (z-score) [3]: -0.316
- glycan array binding signal (z-score) [4]: -0.331
- glycan array binding signal (z-score) [5]: -0.343
- glycan array binding signal (z-score) [6]: -0.31
- glycan array binding signal (z-score) [7]: -0.34
- glycan array binding signal (z-score) [8]: -0.199
- glycan array binding signal (z-score) [9]: -0.333
- glycan array binding signal (z-score) [10]: -0.264
- glycan array binding signal (z-score) [11]: -0.322
- glycan array binding signal (z-score) [12]: -0.047
- glycan array binding signal (z-score) [13]: -0.31
- glycan array binding signal (z-score) [14]: -0.255
- glycan array binding signal (z-score) [15]: -0.346
- glycan array binding signal (z-score) [16]: -0.313
- glycan array binding signal (z-score) [17]: -0.327
- glycan array binding signal (z-score) [18]: -0.332
- glycan array binding signal (z-score) [19]: -0.304
- glycan array binding signal (z-score) [20]: -0.329
- glycan array binding signal (z-score) [21]: -0.338
- glycan array binding signal (z-score) [22]: -0.172
- glycan array binding signal (z-score) [23]: -0.309
- glycan array binding signal (z-score) [24]: 0.009
- glycan array binding signal (z-score) [25]: -0.059
- glycan array binding signal (z-score) [26]: -0.254
